The campaign covered roughly 370,000 compounds. About 150 (0.041%) were called active. This list was built around the results that the source calls inconclusive (neither active nor inactive); the mix of calls is not that of the screen. Calls follow the shape of the dose curve; as a rule, active = well fitted inhibition curve with a large enough effect; inconclusive = small, poorly fitted or top-dose-only effect; inactive = flat fitted curve, though single readings scatter. Potencies of inconclusive entries are left out as doubtful fits.
Each compound was assayed against Beta-lactamase (Escherichia coli (strain K12)) (UniProt P00811) (assay: qHTS Inhibitors of AmpC Beta-Lactamase (assay with detergent)). Conditions: AmpC hydrolysis of nitrocefin, absorbance 480 nm, 0.01% Triton; series mostly up to 114 µM.
Chain of UniProt P00811 (P00811 whole entry, looked up): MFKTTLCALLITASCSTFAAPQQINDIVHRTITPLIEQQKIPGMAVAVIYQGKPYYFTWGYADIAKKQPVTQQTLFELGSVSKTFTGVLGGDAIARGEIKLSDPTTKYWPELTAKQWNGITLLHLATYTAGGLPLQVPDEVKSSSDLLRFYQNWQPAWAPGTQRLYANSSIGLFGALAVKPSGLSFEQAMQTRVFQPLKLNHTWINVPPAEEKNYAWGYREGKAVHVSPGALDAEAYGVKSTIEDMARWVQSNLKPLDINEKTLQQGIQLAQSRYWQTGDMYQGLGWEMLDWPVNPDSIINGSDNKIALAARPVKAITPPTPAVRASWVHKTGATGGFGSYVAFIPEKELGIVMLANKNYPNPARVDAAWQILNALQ
Outline: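 20 mM phosphate pH 7.0 + 0.01% (detergent screen) or 0.0001% Triton X-100; 5.3 nM AmpC reagent; cpd preinc 15 min RT; nitrocefin (800 uM stock) to start; A480 q20 s × 4 min; Activity was normalised to no-enzyme and no-compound control wells.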
Also: nearly all actives have a fitted effect of over 25% in size.
Potency is read from the fitted curve at half-maximal effect; tags tell the direction and shape of the fitted curve.

| SMILES | Potency |
| --- | --- |
| Nc1nc(N(Cc2ccccc2)Cc2ccccc2)nc(C(F)(F)F)n1 | inconclusive [inhibitor, full curve, poor fit] |
| CCN(CC)c1nc(C)nc2c1cnn2CCc1ccccc1 | inconclusive [inhibitor, full curve, poor fit] |
| CSc1nsc(SCC(=O)NC2CCCCC2)n1 | inconclusive [inhibitor, full curve] |
| COc1ccc2[nH]cc(C=O)c2c1 | inactive |
| COC(=O)CNc1nc(Cl)nc(NC2CCCCC2)n1 | inconclusive [inhibitor, partial curve, poor fit] |
| CCOc1cc(-c2cc(-c3ccc(C)cc3)nc(N)c2C#N)ccc1O | inactive |
| CCCOc1ccc(CNC(=S)N/N=C/c2ccc([N+](=O)[O-])cc2)cc1 | inactive |
| Cc1csc(NC(=O)c2cc3c(s2)-c2ccccc2OC3)n1 | inconclusive [inhibitor, full curve, poor fit] |
| Cc1cc2cc(C(c3nnnn3Cc3ccco3)N3CCc4ccccc4C3)c(=O)[nH]c2cc1C (stereo unspecified) | inactive |
| CC1(C)CC(NCc2cccc([N+](=O)[O-])c2)CC(C)(C)N1 | inactive |
| COc1cc(CNCCc2c[nH]c3ccccc23)ccc1OCc1ccccc1F | inconclusive [inhibitor, full curve] |
| O=C(NCc1ccncc1)Nc1ccccc1Cl | inconclusive [inhibitor, partial curve] |
| Cn1c(C(O)c2ccc(Cl)cc2)nc(Cl)c1Cl (stereo unspecified) | inconclusive [inhibitor, partial curve] |
| CCn1c(SCc2ccc(F)cc2)nc2ccccc2c1=O | inactive |
| O=C(COC(=O)/C=C/c1cccc(Cl)c1)NC1CCCC1 | inconclusive [inhibitor, single point] |
| Cc1cccc(-c2nc3c(cnn3-c3ccccc3)c(=O)n2-c2ccc(Cl)cc2)c1 | inactive |
| CCCCc1ccc(NS(=O)(=O)c2c(C)n(C)c(=O)n(C)c2=O)cc1 | inactive |
| Cc1c(C(=O)c2ccc(Cl)c(Cl)c2)cnc2cc3c(cc12)OCO3 | inconclusive [inhibitor, full curve, poor fit] |
| Cn1cc(S(=O)(=O)CC(=O)Nc2ccc3c(c2)OCO3)c2ccccc21 | inconclusive [inhibitor, full curve, poor fit] |
| Cc1ccc(SCC(=O)O/N=C(\N)c2ccncc2)cc1 | inconclusive [inhibitor, full curve] |
| O=C(c1ccc2snnc2c1)N1CCOCC1 | inconclusive [inhibitor, full curve, poor fit] |
| CN(C)/C=C/C(=O)c1ccc(Br)cc1 | inactive |
| O=C(CSc1nnc(-c2ccc(F)cc2)o1)NC1CCCCC1 | inconclusive [inhibitor, single point] |

| SMILES | Potency |
| --- | --- |
| COc1ccccc1Oc1ccc(Oc2ccccc2OC)cc1 | inactive |
| COc1ccc(NS(=O)(=O)c2cc(NC(=O)c3ccco3)ccc2N2CCCCC2)cc1 | inactive |
| CCC(C)NC(=O)CN(c1ccc(OC)cc1)S(=O)(=O)c1ccccc1 (stereo unspecified) | inactive |
| COc1cccc(CNC(=O)Cc2c(C(=O)O)[nH]c3ccccc23)c1 | inconclusive [inhibitor, full curve, poor fit] |
| COc1ccc(NC(=O)Nc2cccc(C(F)(F)F)c2)cn1 | inactive |
| CCn1c(COc2ccccc2C)nc2ccccc21 | inconclusive [inhibitor, partial curve] |
| CC(=O)Nc1cccc(NC(=O)Cn2cnc3c(oc4ccccc43)c2=O)c1 | inactive |
| Cc1cc(C)c2nc(-c3ccccn3)cc(C(=O)Nc3ccc(S(=O)(=O)Nc4cc(C)on4)cc3)c2c1 | inconclusive [inhibitor, partial curve, poor fit] |
| CSc1ccc(/C=N/n2c(C)nnc2C)cc1 | inconclusive [inhibitor, full curve, poor fit] |
| COc1ccc(OC)c2c1sc(=NC(=O)c1cccc(N3C(=O)CCC3=O)c1)n2C | inconclusive [inhibitor, full curve, poor fit] |
| COc1ccccc1NC(=O)CN(c1ccccc1OC)S(=O)(=O)c1ccccc1 | inconclusive [inhibitor, full curve, poor fit] |
| Nc1cccc2c1C(=O)N(CCOc1ccccc1F)C2=O | inactive |
| CC(=O)c1ccc2c(c1)OCCOCCOc1ccccc1OCCOCCO2 | inactive |
| CCc1ccc(N(CC)C(=O)c2ccc3c(Cl)c4c(nc3c2)CCC4)cc1 | inconclusive [inhibitor, partial curve, poor fit] |
| CN(C)c1nc(Oc2ccc(/C=N/O)cc2)nc(N(C)C)n1 | inconclusive [inhibitor, single point] |
| O=C(CCSCc1cccc(Cl)c1)NCCc1ccc(Cl)cc1 | inconclusive [inhibitor, partial curve, poor fit] |
| N/C(=N\OS(=O)(=O)c1ccc2ccccc2c1)c1ccncc1 | inconclusive [inhibitor, partial curve, poor fit] |
| CCCOc1ccc(C(=O)CCC(=O)OCC(=O)N2CC(=O)Nc3ccccc32)cc1 | inconclusive [inhibitor, full curve, poor fit] |
| Cc1nn2c(NCCCN(C)C)c3c(nc2c1-c1ccccc1)CCC3 | inconclusive [inhibitor, single point] |
| Cc1cc(C)c2oc(-c3cccc(NC(=O)c4ccc(-c5cccc([N+](=O)[O-])c5)o4)c3)nc2c1 | inactive |
| Cc1cccc(NC(=O)C2CCCN2S(=O)(=O)c2ccc3c(c2)n(C)c(=O)c(=O)n3C)c1 (stereo unspecified) | inconclusive [inhibitor, full curve, poor fit] |
| O=C(NCc1ccc2c(c1)OCO2)c1nnc(Cc2ccc(F)cc2)o1 | inconclusive [inhibitor, partial curve, poor fit] |
| Cc1ccc(C)c(Cn2cnc3c(cnn3C(C)(C)C)c2=O)c1 | inconclusive [inhibitor, full curve] |

Reference: PubChem BioAssay AID485294 (National Center for Advancing Translational Sciences (NCATS), 2010)
